According to article PMC7819943, “Rice protein-binding microarrays: a tool to detect cis-acting elements near promoter regions in rice”:
Some of the results follow.

Each sequence was assayed against T1, OsWOX13 (Oryza sativa, UniProt Q5QMM3 1-267) (assay: protein-binding microarray (RPBM); PBS, 2% BSA, 51.3 ng/ul salmon testes DNA, 50 uM zinc acetate, 200 nM TF, 25 C, 1 h; high values mean tight binding). Details: protein: recombinant; tags: N-terminal polyhistidine and DsRed monomer fusion (pET32a); label: CyDye5-dUTP incorporated in the synthesized complementary strand; 3' TTTTT single-stranded linker to array surface; dsDNA, one strand shown.
T1 sequence: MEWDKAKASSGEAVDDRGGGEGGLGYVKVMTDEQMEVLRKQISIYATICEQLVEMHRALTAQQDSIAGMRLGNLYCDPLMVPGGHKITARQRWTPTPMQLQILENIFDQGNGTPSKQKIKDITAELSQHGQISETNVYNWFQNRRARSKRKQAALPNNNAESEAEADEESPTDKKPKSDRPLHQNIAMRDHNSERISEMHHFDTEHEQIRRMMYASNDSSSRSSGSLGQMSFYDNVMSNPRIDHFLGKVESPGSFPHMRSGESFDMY
Summary of the method: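 Transcription factors were each fused at the N-terminus to a polyhistidine tag plus DsRed and expressed in E. coli BL21-CodonPlus before Ni–NTA purification. Binding to a double-stranded custom Agilent array was carried out with 200 nM protein at 25 °C for 1 h in PBS, 2% BSA, salmon testes DNA and 50 µM zinc acetate. The binding signal is per-feature fluorescence intensity, in arbitrary units, on an Axon 4000B scanner.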
In the case of “AACCAAATTAATCTATCATTATAACATGTTTACTGTAGCACGGAGTCACCTAGTGCAG”, the binding signal is reported as 22100 fluorescence intensity (a.u.). In the case of “TCGGACATAATTTGACAGTTACGTTCATGTGACCGACGGTCGGAGTCACCTAGTGCAG”, the binding signal is reported as 19400 fluorescence intensity (a.u.). With “GAGGATTTCTTAGTTGATTGCTACCTATACTCCGGAACAGCGGAGTCACCTAGTGCAG” the binding signal was 19300 fluorescence intensity (a.u.). For “ACCTACAATTTAGATTGATTGATCATTCAATCAAATACATCGGAGTCACCTAGTGCAG”, the binding signal was 48300 fluorescence intensity (a.u.). In the case of “CCAAATCAATCAAATCGCATTCCACCAATTCTCCACTCTCCGGAGTCACCTAGTGCAG”, the binding signal is reported as 27300 fluorescence intensity (a.u.). In the case of “ACTAATTGACTACTCCCTGAATTTAAAGTTGATGGTCAGTCGGAGTCACCTAGTGCAG”, the binding signal is reported as 61100 fluorescence intensity (a.u.). In the case of “TAATAATCACTGACTCCTGCTATTCTCGTCAACCTATGTTCGGAGTCACCTAGTGCAG”, the binding signal is reported as 4240 fluorescence intensity (a.u.). With “TCTCTAACACACCCATCAATCATGTATCCCCAGCACAAATCGGAGTCACCTAGTGCAG” the binding signal was 6780 fluorescence intensity (a.u.). With “CTACTGATTTCTTAAAACCGGCGAAGAGTTGCAGATTCAGCGGAGTCACCTAGTGCAG” the binding signal was 4770 fluorescence intensity (a.u.). “GTACTAGTAATTTTATCATATGTCATCACGTCTATAATGTCGGAGTCACCTAGTGCAG” was tested, and the binding signal was 4350 fluorescence intensity (a.u.). With “TGAATTTGACATGATAGAAGTAGTGGTTTTGCTGAAAACGCGGAGTCACCTAGTGCAG” the binding signal was 4820 fluorescence intensity (a.u.). For “ACTCCACTCGCTCGACGGCTGATTGCCTGCCTGCCTCCCCCGGAGTCACCTAGTGCAG”, the binding signal was 4290 fluorescence intensity (a.u.). For “ACTCCTATCAATCCGAAAATTCCCCATTTCTATTCCCCTGCGGAGTCACCTAGTGCAG”, the binding signal was 7740 fluorescence intensity (a.u.). For “ATTATGATTTATTCCCACACACCCTGTACGTAGATGATGCCGGAGTCACCTAGTGCAG”, the binding signal was 17300 fluorescence intensity (a.u.). For “TATTAATTGAGTGAGATTTGGGGTATTCAGTCGACTGGCACGGAGTCACCTAGTGCAG”, the binding signal was 54900 fluorescence intensity (a.u.). With “ATCTTAATTAGTTAGTTGATGATATGAATAAATTAGAGGTCGGAGTCACCTAGTGCAG” the binding signal was 44300 fluorescence intensity (a.u.). With “AGAAATTTGTTACTTTGCTTTCGTCTAACCTGTCATTAGTCGGAGTCACCTAGTGCAG” the binding signal was 3340 fluorescence intensity (a.u.). In the case of “TGCCTTTAGATTGCCCTTTCCCTTTACATCCATGCAGAAACGGAGTCACCTAGTGCAG”, the binding signal is reported as 4250 fluorescence intensity (a.u.). “TTTGAATTGAGGGGTAAATTGAACGGTTTTAGAAGTTGAGCGGAGTCACCTAGTGCAG” was tested, and the binding signal was 19300 fluorescence intensity (a.u.). For “TGCATATTATACTAATCAAGCCTTGTCGAGCTATTCGAGCCGGAGTCACCTAGTGCAG”, the binding signal was 5980 fluorescence intensity (a.u.). In the case of “AGTTATTGATAACATAAGCCTTAAAAGTTCGCCCTAACCTCGGAGTCACCTAGTGCAG”, the binding signal is reported as 4600 fluorescence intensity (a.u.). “GTGAAATAATTGACAGTGCTGAGAATTGGGTCAAGGTGTTCGGAGTCACCTAGTGCAG” was tested, and the binding signal was 39600 fluorescence intensity (a.u.). “GAGAATAATCATGATGGACTGGGTTTAACGACAAGAAGCACGGAGTCACCTAGTGCAG” was tested, and the binding signal was 9670 fluorescence intensity (a.u.). In the case of “GTTTGATTTATTATTGTAATTATGGCAAGCCACATTTTGTCGGAGTCACCTAGTGCAG”, the binding signal is reported as 38100 fluorescence intensity (a.u.). “CTTGACCATTTCTGACAGATGCATATTTTGGATTTCCTGCCGGAGTCACCTAGTGCAG” was tested, and the binding signal was 6860 fluorescence intensity (a.u.). In the case of “GCCTTGCAACTGATTGATTATTGCTCGTTCCTTTATGTTTCGGAGTCACCTAGTGCAG”, the binding signal is reported as 40000 fluorescence intensity (a.u.). In the case of “GCAATTACAAATTTACCACTATTTTGAATCGTTATTGCAACGGAGTCACCTAGTGCAG”, the binding signal is reported as 6770 fluorescence intensity (a.u.). “ATGGAGTCAATTAATCCATGTTGTAACAATGTCAATGTGACGGAGTCACCTAGTGCAG” was tested, and the binding signal was 6640 fluorescence intensity (a.u.). “ATTTATTAATTTATTGGTAGTGTTAAAGTCTAGGCAAACTCGGAGTCACCTAGTGCAG” was tested, and the binding signal was 15800 fluorescence intensity (a.u.). “CATTCAAATTCAGTAGATGATTTTGGTATGACATTGTGCCCGGAGTCACCTAGTGCAG” was tested, and the binding signal was 3420 fluorescence intensity (a.u.). “GATCAAATCACACATGTCATCATGTTAGCGAGCGAAAGACCGGAGTCACCTAGTGCAG” was tested, and the binding signal was 4810 fluorescence intensity (a.u.). In the case of “ACCTAACAGACACCGGCCTTGCCTGCCTGCGACACACGCACGGAGTCACCTAGTGCAG”, the binding signal is reported as 6020 fluorescence intensity (a.u.). For “TTTGTGATATAAATCTAAATGTTCACTTGAAGCTGGAAGTCGGAGTCACCTAGTGCAG”, the binding signal was 3630 fluorescence intensity (a.u.). “TATTAGTGCCTAATTAATTAAATATTAATTATTATAAATTCGGAGTCACCTAGTGCAG” was tested, and the binding signal was 10200 fluorescence intensity (a.u.). For “GTGATGAGTTTGATGACTGTTGAACTGATCCATACTCCCTCGGAGTCACCTAGTGCAG”, the binding signal was 6980 fluorescence intensity (a.u.). “TCCGAGTGATTAATTCACACATTAATTTGTCTCATCGATCCGGAGTCACCTAGTGCAG” was tested, and the binding signal was 26100 fluorescence intensity (a.u.). “GTAATGACAGGTGACACCTAAGGTCTGTGAAACATACTCCCGGAGTCACCTAGTGCAG” was tested, and the binding signal was 4350 fluorescence intensity (a.u.). With “GTTGATTCATCTCGCGATTGATCGAGCTCGAGCGGCGGTGCGGAGTCACCTAGTGCAG” the binding signal was 12900 fluorescence intensity (a.u.). In the case of “TTCTTTAATTTGTCTGAATATATACATTAAAATATCAAATCGGAGTCACCTAGTGCAG”, the binding signal is reported as 6700 fluorescence intensity (a.u.). “ATTTCAATCAAATTTTCAATTTTAACGTAAACAAACACACCGGAGTCACCTAGTGCAG” was tested, and the binding signal was 47800 fluorescence intensity (a.u.). For “CCGCACATTAATTGTGATTGTGTGGACATTCTCAATTCTGCGGAGTCACCTAGTGCAG”, the binding signal was 21700 fluorescence intensity (a.u.). With “CAAAATTAAAAGTTTGACTAAAATTGAAAGTTTGATGAAACGGAGTCACCTAGTGCAG” the binding signal was 9270 fluorescence intensity (a.u.).
